# Source: PubChem BioAssay AID686978 (National Center for Advancing Translational Sciences (NCATS), 2013)
# Screen size: about 420,000 compounds; about 64,000 (15%) were called active. Inconclusive means that the source gave no clear call. Such entries were picked first, then a sample of the others. Calls follow the shape of the dose curve; as a rule, active = well fitted inhibition curve with a large enough effect; inconclusive = small, poorly fitted or top-dose-only effect; inactive = flat fitted curve, though single readings scatter. No potency is given beside an inconclusive call; the fits are too rough.
# Assay: qHTS for Inhibitors of human tyrosyl-DNA phosphodiesterase 1 (TDP1): qHTS in cells in absence of CPT; also: nearly all actives have a fitted effect of over 55% in size
# Details: DT40 Tdp1-/- hTDP1 cells, no CPT, ATP luminescence, 48 h; activity change, negative = growth inhibition: at 46.2 µM (top of the series)
# Procedure, shortened: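 No-CPT arm: Tdp1-/-;hTDP1 DT40 cells (400/well) plus compounds, incubated ≥48 hr at 37 °C. Readout CellTiter-Glo luminescence.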
# % is scaled to controls: 0 for no effect and ±100 for the full control effect; potency is read from the fitted curve at half-maximal effect; tags tell the direction and shape of the fitted curve.
SMILES,Potency,"activity change, negative = growth inhibition"
c1cnn(-c2nc(N3CCOCC3)nc(N3CCOCC3)n2)c1,active: 5.8 µM,–
O=C(/C=C\c1cn(-c2ccccc2)nc1-c1ccccc1)Nc1nccs1,"inconclusive [inhibitor, single point]",–
Cc1ccc(Cn2c(SCc3cccnc3)nc3c2c(=O)n(C)c(=O)n3C)cc1,"inconclusive [inhibitor, single point]",–
O=C(Nc1cccnc1)c1cc(-c2cccc(Br)c2)nc2ccccc12,active: 16.4 µM,–
COc1cccc(N(C(=O)CS(=O)CC(=O)Nc2ccc(F)cc2)C(C(=O)NC2CCCCC2)c2cccs2)c1 (centres undefined),"inconclusive [inhibitor, single point]",–
O=C(Nc1ccc2c(c1)ncn2C1CCCCC1)c1ccco1,–,inconclusive: -31.9% [inhibitor]
Cc1cc(SC(C)C(=O)NCC(=O)Nc2ccc(F)c(F)c2F)nc2ccccc12 (centres undefined),"inconclusive [inhibitor, partial curve]",–
COc1ccc(CCNC(=O)C2CCN(C(=O)c3ccc(Br)cc3)CC2)cc1OC,"inconclusive [inhibitor, single point]",–
CNCCCOc1ccc2c(c1)CCC2,"inconclusive [inhibitor, partial curve]",–
Cc1ccc(C(=O)N/N=C/C=C/c2ccccc2)cc1,inactive,–
O=C(c1ccccc1)n1nc(-c2ccco2)nc1NCc1ccccc1Cl,inactive,–
O=C(NCc1ccccc1)C(c1cccs1)N(Cc1cccs1)C(=O)c1cnccn1 (centres undefined),"inconclusive [inhibitor, single point]",–
CCSCCCn1[nH]c2ccccc2c1=O,"inconclusive [inhibitor, single point]",–
COc1ccc(-c2csc(C(O)(c3ccccc3)C(F)(F)F)n2)cc1 (centres undefined),"inconclusive [inhibitor, single point]",–
CCc1ccccc1NC(=O)Nc1cc(C(=O)NCc2ccc(OC)cc2)ccc1N1CCCC1,active: 9.2 µM,–
COc1ccc(-c2[nH]ncc2-c2cnn(-c3ccccc3)c2)c(O)c1,inactive,–
O=C1N[C@H](Cc2ccccc2)C(=O)N[C@H]1Cc1cn(S(=O)(=O)c2ccccc2)c2ccccc12,"inconclusive [inhibitor, single point]",–
COc1c(Cl)cc(Cl)cc1CNCCNCCO,inactive,–
COc1cc(C2C3=C(CC(C)(C)CC3=O)NC3=C2C(=O)c2ccccc23)ccc1O (centres undefined),inactive,–
COc1cccc(N/C(SCc2cccc([N+](=O)[O-])c2)=C(/C#N)C(=O)NCc2cccs2)c1,active: 16.4 µM,–
COc1ccc(NC(=O)CSc2c(C)n[nH]c2C)cc1,"inconclusive [inhibitor, partial curve]",–
COCc1cccc(-c2csc(C(O)c3ccc(F)c(OC)c3)n2)c1 (centres undefined),active: 20.6 µM,–
CSc1nc(N2CCOCC2)c2c(c1C#N)CC(C)(C)OC2,"inconclusive [inhibitor, single point]",–
CN1CCCC(OC(=O)c2ccc(Cl)cc2)C1 (centres undefined),–,inconclusive: -18.8% [inhibitor]
COCCCNC(=O)COc1ccc(Br)cc1Cl,inactive,–

SMILES,Potency,"activity change, negative = growth inhibition"
Cn1cccc1C(=O)OCC(=O)N1c2ccccc2NC(=O)C1(C)C,"inconclusive [inhibitor, single point]",–
CCOc1ccc(CCNC(=O)C2CCC(CNS(=O)(=O)c3ccc(Cl)cc3)CC2)cc1OCC (centres undefined),"inconclusive [inhibitor, single point]",–
O/N=C(/CI)c1ccc2ccccc2c1,"inconclusive [inhibitor, single point]",–
COc1ccccc1N1CCN(C2CCCN(S(=O)(=O)c3ccccc3)C2)CC1 (centres undefined),"inconclusive [inhibitor, single point]",–
Cc1c(C(=O)O)sc2nc(C)n(C)c(=O)c12,inactive,–
CCc1cccc(CC)c1-n1c(SCC(=O)N2CCCc3ccccc32)nc(O)cc1=O,"inconclusive [inhibitor, single point]",–
Cc1ccc2nc(NC(=O)CN3C(=O)NC4(CCCC4)C3=O)sc2c1,"inconclusive [inhibitor, single point]",–
COCCNC(=O)Cn1nc(Cc2ccncc2)c2ccccc2c1=O,–,inconclusive: -39% [inhibitor]
COc1ccc(Cl)cc1NC(=O)CSc1nc2ccsc2c(=O)n1CC1CCC(C(=O)O)CC1 (centres undefined),"inconclusive [inhibitor, single point]",–
CCc1nc2c(OCC(=O)N3CCOCC3)cccn2c1N(C=O)Cc1ccccc1,inactive,–
O=C(CCc1ccc(Oc2cc([N+](=O)[O-])cc([N+](=O)[O-])c2)cc1)Nc1cccc(Cl)c1,"inconclusive [inhibitor, single point]",–
CC1=C2CCCC[C@@]23C2C(=O)N(C)C(=O)[C@@H]2ON3OC1 (some centres undefined),inactive,–
CC(C)CN1CC(C)C(=O)NC1=S (centres undefined),inactive,–
CC(C)C(=O)NCC1CCC2(CCN(Cc3ccc(-c4ccccc4Cl)o3)CC2)O1 (centres undefined),"inconclusive [inhibitor, single point]",–
COc1ccccc1N1C(=O)CC(N2CCN(c3ccc(Cl)cc3)CC2)C1=O (centres undefined),inactive,–
Cc1ccn2c(C(=O)CSc3ccc(Cl)cc3Cl)c(C)nc2c1,"inconclusive [inhibitor, partial curve]",–
O=S(=O)(c1ccccc1)N1CCNc2ccccc21,inactive,–
Cc1cccc(N(C)S(=O)(=O)c2c[nH]c3ccc([N+](=O)[O-])cc23)c1,"inconclusive [inhibitor, single point]",–
COCc1cc(C)nc2sc3c(c12)NC(c1ccccc1C(=O)O)N(c1ccc(OC)cc1)C3=O (centres undefined),inactive,–
CC(Oc1ccccc1)C(=O)N1CCN(Cc2cc(=O)n3nc(-c4ccccc4Cl)sc3n2)CC1 (centres undefined),"inconclusive [inhibitor, single point]",–
O=c1c2ccccc2nnn1CSc1ccc2c(c1)OCCO2,inactive,–
O=C(CCSCc1ccccc1Cl)N1CCN(c2ccc(F)cc2)CC1,"inconclusive [inhibitor, single point]",–
COC(=O)c1[nH]c2ccccc2c1NC(=O)Oc1ccccc1,inactive,–
CCCCC(=O)NC(c1ccccc1Cl)c1ccc2cccnc2c1O (centres undefined),active: 6.51 µM,–
CCC(C)Sc1ccc(-c2nc3ccccn3c2NCc2ccccc2)cc1OC (centres undefined),"inconclusive [inhibitor, single point]",–

SMILES,Potency,"activity change, negative = growth inhibition"
Cc1ccc(-c2cnc(C(O)c3ccc(Cl)cc3C)[nH]2)cc1 (centres undefined),"inconclusive [inhibitor, single point]",–
O=c1cc(CN2CCN(S(=O)(=O)c3ccccc3)CC2)nc2sc(-c3ccccc3Cl)nn12,"inconclusive [inhibitor, full curve]",–
Cc1ccc(S(=O)(=O)N2CCOCC2)cc1C(=O)OCC(=O)N1CCc2ccccc2C1,active: 23.1 µM,–
COc1ccc(S(=O)(=O)N2CCCc3ccccc32)cc1OC,inactive,–
O=[N+]([O-])c1ccc(OCC2CC(c3ccccc3)=NO2)cc1 (centres undefined),–,inconclusive: -31.5% [inhibitor]
CCN(CC)c1ccc(/C=C2\C(=N)N3N=C(CC(=O)N4CCOCC4)SC3=NC2=O)cc1,inactive,–
COc1cc(/C=C2\SC(=S)N(CCC(=O)Nc3ccccc3O)C2=O)cc(OC)c1OC,"inconclusive [inhibitor, single point]",–
COc1cc(/C=C/C(=O)OCC(=O)NC(=O)NC2CCCC2)ccc1OCC#N,"inconclusive [inhibitor, single point]",–
Clc1ccc(-c2nc3ccc(Cl)cn3c2Cc2ccccc2)cc1,"inconclusive [inhibitor, single point]",–
O=C(c1ccc2ccccc2c1)N1CCN(c2ccc(O)cc2)CC1,"inconclusive [inhibitor, single point]",–
Cc1cn(-c2cc(NC(=O)c3ccc(C)c(NC(=O)c4cccc(-c5cn[nH]c(=O)c5)c4)c3)cc(C(F)(F)F)c2)cn1,"inconclusive [inhibitor, single point]",–
Cc1cccc(C(=O)OCC(=O)c2c(C)[nH]c3ccccc23)c1O,"inconclusive [inhibitor, single point]",–
COc1ccc(OC)c(NC(=O)c2nnn(Cc3ccc(Br)cc3F)c2N)c1,active: 18.4 µM,–
COc1ccc(/C=C/C(=O)c2ccc(NS(=O)(=O)c3ccc(C)cc3)cc2)cc1O,active: 20.6 µM,–
CCNS(=O)(=O)c1ccc(NC(=S)N2CCc3ccccc32)cc1,inactive,–
COc1cc(OC)cc(C(=O)NNC(=O)c2nn(C)c(=O)c3ccccc23)c1,"inconclusive [inhibitor, single point]",–
Clc1cccc(-c2noc3ncnc(Nc4ccc5c(c4)OCO5)c23)c1,"inconclusive [inhibitor, partial curve]",–
Cc1cccc(C)c1NC(=O)CSc1nnc(C2CCCCC2)o1,inactive,–
O=C(c1ccc(Cn2c(=O)[nH]c3ccccc3c2=O)cc1)N1CCN(c2ccccc2)CC1,active: 14.6 µM,–
COCCn1c(SCC#N)nnc1-c1ccc([N+](=O)[O-])cc1,inactive,–
Cn1c(=O)n(CCc2ccccc2)c(=O)c2c1nc1n2CCCN1CCc1ccccc1,active: 7.31 µM,–
CCN1CCc2c(sc(NC(=O)c3ccc(S(=O)(=O)N(C)CC4CCCO4)cc3)c2C(N)=O)C1 (centres undefined),active: 20.6 µM,–
CNC(=O)c1snnc1-c1ccccc1,inactive,–
CC(C)OC(=O)CN1C(=O)S/C(=C/c2ccc(N3CCCCC3)o2)C1=O,active: 20 µM,–
